Consider 23 molecules from article PMC4336329 (PLoS ONE, 2015).

Out of some 310,000 compounds screened, about 14,000 (4.5%) showed an effect of 50% or more. The effect is printed as a negative number. The list shows a part of the results.
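Also: peak tail current of the secondary pulse compared with the same well before compound.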

The target in this test is human ether-à-go-go-related gene (hERG) potassium channel (human, UniProt Q12809). Description: primary screen, population patch clamp on CHO cells stably expressing hERG.
Chain of human ether-à-go-go-related gene (hERG) potassium channel (Q12809 whole entry, looked up): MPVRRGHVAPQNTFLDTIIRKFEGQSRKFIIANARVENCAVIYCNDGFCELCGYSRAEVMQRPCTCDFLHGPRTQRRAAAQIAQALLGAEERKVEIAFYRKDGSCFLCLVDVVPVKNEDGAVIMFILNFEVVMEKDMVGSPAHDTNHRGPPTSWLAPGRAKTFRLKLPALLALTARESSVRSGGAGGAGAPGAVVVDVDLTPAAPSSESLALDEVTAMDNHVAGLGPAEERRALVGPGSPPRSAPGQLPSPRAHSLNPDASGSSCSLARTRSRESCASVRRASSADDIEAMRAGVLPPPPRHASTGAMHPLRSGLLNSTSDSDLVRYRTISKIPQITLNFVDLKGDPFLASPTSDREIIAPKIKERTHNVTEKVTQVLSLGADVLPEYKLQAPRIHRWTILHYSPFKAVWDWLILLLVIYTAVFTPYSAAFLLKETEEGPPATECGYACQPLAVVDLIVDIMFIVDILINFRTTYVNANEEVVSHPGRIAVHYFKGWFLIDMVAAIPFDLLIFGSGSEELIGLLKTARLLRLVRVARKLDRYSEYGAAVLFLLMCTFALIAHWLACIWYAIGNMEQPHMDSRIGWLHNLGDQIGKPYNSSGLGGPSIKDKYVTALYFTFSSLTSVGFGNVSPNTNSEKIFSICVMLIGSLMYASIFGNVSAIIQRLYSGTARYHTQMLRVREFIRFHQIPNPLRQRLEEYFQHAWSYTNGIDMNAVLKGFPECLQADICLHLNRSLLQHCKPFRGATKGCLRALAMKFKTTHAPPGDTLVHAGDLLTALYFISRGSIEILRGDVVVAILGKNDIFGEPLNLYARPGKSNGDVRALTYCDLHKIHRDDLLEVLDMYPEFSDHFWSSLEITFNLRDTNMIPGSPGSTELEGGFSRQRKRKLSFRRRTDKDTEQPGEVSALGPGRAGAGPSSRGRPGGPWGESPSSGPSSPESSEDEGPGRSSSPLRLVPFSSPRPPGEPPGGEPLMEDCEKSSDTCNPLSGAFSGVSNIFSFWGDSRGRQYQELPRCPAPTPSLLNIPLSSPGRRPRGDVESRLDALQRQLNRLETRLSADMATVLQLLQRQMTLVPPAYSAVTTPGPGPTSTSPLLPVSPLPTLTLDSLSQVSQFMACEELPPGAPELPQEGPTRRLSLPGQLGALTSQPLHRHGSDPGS
For the molecule `CCCOc1ccc(Cn2c(C)nc([N+](=O)[O-])c2SCC(O)COC)cc1[N+](=O)[O-]` (centres unmarked), the “hERG current change (%, negative = inhibition) at 10uM” value is -66%.
For `COCCN1C(=O)CS/C1=C(/C#N)C(=O)NCc1ccco1`, the “hERG current change (%, negative = inhibition) at 10uM” value is listed as -7.92%.
On to `CCc1nnc(NC(=O)CSc2nnc(Cc3cc(=O)[nH]c(=O)[nH]3)n2-c2ccc(OC)cc2)s1`, for which the “hERG current change (%, negative = inhibition) at 10uM” value is given as -13.6%.
On to `O=C1CC(Nc2ccc(N3CCOCC3)cc2)C(=O)N1CCc1ccccc1` (centres unmarked), for which the “hERG current change (%, negative = inhibition) at 10uM” value amounted to 6.3%.
In the case of `CCO[C@@H]1OC(C(=O)N2CCOCC2)=C[C@H](c2coc3ccccc3c2=O)[C@H]1CCCO`, the “hERG current change (%, negative = inhibition) at 10uM” value was determined as 5.99%.
`O=C1/C(=C/c2ccc([N+](=O)[O-])cc2)C=C(c2ccccc2)N1c1ccccc1`: the “hERG current change (%, negative = inhibition) at 10uM” value is recorded as -4.89%.
With `OCCNc1ncnc2c1sc1nc(N3CCOCC3)c3c(c12)CCC3`, the “hERG current change (%, negative = inhibition) at 10uM” value was -25.6%.
As to `COc1ccc2nc(NC(=O)c3ccccc3[N+](=O)[O-])sc2c1`, the “hERG current change (%, negative = inhibition) at 10uM” value is on record as -3.81%.
As for `O=C(c1ccccc1O)N1CCOCC1`, the “hERG current change (%, negative = inhibition) at 10uM” value was 3.51%.
Take `COc1cccc(-n2c(SCC(=O)Nc3ccc4c(c3)CCC4)nc3ccccc3c2=O)c1`: the “hERG current change (%, negative = inhibition) at 10uM” value is given as 10.4%.
Take `CC(Oc1ccc2ccc(=O)oc2c1)C(=O)NC1CC(C)(C)NC(C)(C)C1` (centres unmarked): the “hERG current change (%, negative = inhibition) at 10uM” value is 18.2%.
The value for `COC(=O)c1ccc(C2/C(=C(\O)c3cccc(OC)c3)C(=O)C(=O)N2CCCN2CCOCC2)cc1` (centres unmarked) was 16.5%.
In the case of `CC(C)(C)c1ccc(S(=O)(=O)CC(O)CSc2nc3c(cc2C#N)CCCC3)cc1` (centres unmarked), the “hERG current change (%, negative = inhibition) at 10uM” value is -9.25%.
In the case of `c1ccc(-n2ncc3c(N4CCCC4)ncnc32)cc1` it was -8.17%; in that of `Cc1c(C(=O)N2CCCCC2)c(S(=O)(=O)N2CCN(c3ccc(Cl)cc3)CC2)c(C)n1C`, -55.7%.
For the molecule `CCOC(=O)CSc1c(-c2ccccc2)c2cc(Cl)ccc2[nH]c1=O`, the “hERG current change (%, negative = inhibition) at 10uM” value amounted to 1.55%.
With `Cc1ccc(N2C(=O)c3ccc(C(=O)N4CCN(c5ccccc5F)CC4)cc3C2=O)cc1`, the “hERG current change (%, negative = inhibition) at 10uM” value was -15.8%.
Consider `COc1ccc2[nH]cc(CCNC(=O)Cc3ccc(Cl)cc3)c2c1`, for which the “hERG current change (%, negative = inhibition) at 10uM” value is 2.05%.
Regarding `Cc1sc2nc(Cc3ccccc3)[nH]c(=O)c2c1-c1ccccc1`, the “hERG current change (%, negative = inhibition) at 10uM” value came to 4.57%.
On to `COc1ccc(CCNC(=O)Nc2ccc([N+](=O)[O-])cc2)cc1OC`, for which the “hERG current change (%, negative = inhibition) at 10uM” value is -20.4%.
Consider `Cc1nc2c3cnn(-c4ccc(C)c(C)c4)c3ncn2n1`, for which the “hERG current change (%, negative = inhibition) at 10uM” value was -7.97%.
With `COC(=O)c1ccc(OCC(O)CN2C(=O)c3ccccc3S2(=O)=O)cc1` (centres unmarked), the “hERG current change (%, negative = inhibition) at 10uM” value amounted to 0.999%.
With `COCCCNC(=O)CN1C(=O)COc2ccc(S(=O)(=O)N3CCOCC3)cc21`, the “hERG current change (%, negative = inhibition) at 10uM” value was found to be 9.09%.
